Several values for one entry are separate records, joined by “and”; a condition that tells them apart may be missing. Equal values may be shown once. Inconclusive results, whose numbers are uncertain, are shown with a selection of clear calls. For part of these data: Potencies of inconclusive entries are doubtful fits and often do not repeat. Activity calls are given as the source filed them. Calls follow the shape of the dose curve; as a rule, active = well fitted curve in the direction sought with a large enough effect; inconclusive = small, poorly fitted or top-dose-only effect, or another doubt; inactive = no such curve, though single readings can be large; an effect the other way counts as inactive or inconclusive.
Assays:
[1] = biological target: Cytochrome P450 3A7 (Homo sapiens) (UniProt P24462); experiment: Cytochrome P450 family 3 subfamily A member 7 (CYP3A7) small molecule antagonists: luciferase biochemical qHTS assay (AID 1963596); also: nearly all actives have a fitted effect of over 40% in size; also: potency is read from the fitted curve at half-maximal effect
Summary of the method: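 Recombinant CYP3A7 P450-Glo luminescent assay: enzyme-proluciferin substrate mix preincubated with compound 10 min at room temperature, reaction started with NADPH regeneration system for 1 h. Luciferin detected by luminescence; ketoconazole as positive control.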

[2] = Viability qHTS for spleen associated tyrosine kinase inhibitor (SYKi) naive MV4-11 cells (AID 1963823); conditions: MV4-11 AML viability, CellTiter-Glo luminescence, 72 h; viability (% of control): at 45 µM (top of the series); also: nearly all actives have a fitted effect of over 40% in size; also: potency is read from the fitted curve at half-maximal effect
Summary of the method: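 CellTiter-Glo luminescence, 10 min room-temperature incubation, gave viability. Cells: naive MV4-11 (500/well), treated 72 hr at 37 C, 5% CO2.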

[3] = Cellular viability qHTS for adrenocortical cancer (ACC) cell line SW-13 (AID 1963989); conditions: SW-13 ACC cells viability, CellTiter-Glo, 48 h; activity (max response): stronger effect = lower value; also: nearly all actives have a fitted effect of over 65% in size; also: potency is read from the fitted curve at half-maximal effect;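 as to activity (max response): cells grown in serum-free medium with ITS supplement; % is scaled to controls: 0 for no effect and ±100 for the full control effect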
Summary of the method: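 Here, serum-free SW-13 cultures were dosed up to 46 uM. Following 48 h, ATP-dependent luminescence (CellTiter-Glo) reported viable cells, and logistic modeling produced IC50 values.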

[4] = Cellular viability qHTS for adrenocortical cancer (ACC) cell line NCI-H295R (AID 1963990); conditions: CellTiter-Glo ATP luminescence, 48 h; activity change, negative = viability loss: at 46.1 µM (top of the series); also: nearly all actives have a fitted effect of over 60% in size; also: potency is read from the fitted curve at half-maximal effect;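 as to activity change, negative = viability loss: 0% = DMSO only wells and -100% = full killing with cytotoxic reference compound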
Summary of the method: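 Viability of NCI-H295R after 48 h of treatment (final up to 46 uM) measured through cellular ATP luminescence.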

[5] = Quantitative highthroughput screen to assess conditional lethalithy of P12 Ichikawa cells grown in Human Plasma-Like Medium with dialyzed fetal bovine serum (HPLM+ds) (AID 1963879); conditions: Potency: viability; also: nearly all actives have a fitted effect of over 35% in size
Summary of the method: (§1)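 Each medium arm—HPLM with 10% dialyzed FBS, or RPMI1640 with 5 mM glucose and 10% untreated or dialyzed FBS—was screened against an 11-point, 3-fold compound titration for 48 h at 37 °C, with CellTiter-Glo luminescence as endpoint.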

[6] = Quantitative highthroughput screen to assess conditional lethalithy of SEM cells grown in Human Plasma-Like Medium with dialyzed fetal bovine serum (HPLM+ds) (AID 1963882); also: nearly all actives have a fitted effect of over 35% in size
Summary of the method: as §1

[7] = Quantitative highthroughput screen to assess conditional lethalithy of SEM cells grown in RPMI1640 with unreated serum (RPMI+s) (AID 1963883); conditions: SEM B-ALL cells, CellTiter-Glo viability, 48 h; viability: at 45.8 µM (top of the series);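 also: 100% = DMSO wells and 0% = empty wells without cells; nearly all actives have a fitted effect of over 35% in size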
Summary of the method: as §1

[8] = Quantitative highthroughput screen to assess conditional lethalithy of SEM cells grown in RPMI1640 with dialyzed fetal bovine serum (RPMI+ds) (AID 1963884); conditions: SEM B-ALL cells, RPMI+dialyzed FBS, CellTiter-Glo viability, 48 h; viability: at 45.8 µM (top of the series);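 also: 100% = DMSO control wells and 0% = empty wells without cells; nearly all actives have a fitted effect of over 35% in size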
Summary of the method: as §1

[9] = Viability qHTS for spleen associated tyrosine kinase inhibitor (SYKi) drug resistant MV4-11 cells (AID 1963824); also: nearly all actives have a fitted effect of over 35% in size; also: potency is read from the fitted curve at half-maximal effect
Summary of the method: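 CellTiter-Glo luminescence, read 10 min after reagent addition, reports viability after a 72 hr compound exposure. Cells are an MV4-11 line made resistant to SYK inhibition, seeded at 500 per well onto compound-containing plates.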
Tags tell the direction and shape of the fitted curve.

Chain of UniProt P24462 (P24462 whole entry, looked up): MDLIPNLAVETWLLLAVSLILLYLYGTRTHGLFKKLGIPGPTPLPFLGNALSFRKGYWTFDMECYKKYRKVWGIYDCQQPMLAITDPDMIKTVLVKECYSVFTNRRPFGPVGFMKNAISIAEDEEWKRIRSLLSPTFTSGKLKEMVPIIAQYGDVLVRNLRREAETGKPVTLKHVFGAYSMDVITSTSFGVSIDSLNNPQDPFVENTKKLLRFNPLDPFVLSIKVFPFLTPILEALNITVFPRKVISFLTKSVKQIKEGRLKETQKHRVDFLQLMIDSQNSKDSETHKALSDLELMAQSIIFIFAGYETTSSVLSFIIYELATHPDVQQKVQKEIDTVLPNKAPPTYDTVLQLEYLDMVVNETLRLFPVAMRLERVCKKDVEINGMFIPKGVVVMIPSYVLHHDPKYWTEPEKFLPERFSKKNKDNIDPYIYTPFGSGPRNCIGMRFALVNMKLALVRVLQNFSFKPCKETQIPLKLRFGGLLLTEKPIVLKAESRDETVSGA

CCN(CC)CCOc1ccc2c(c1)C(=O)c1cc(OCCN(CC)CC)ccc1-2
Potency [1]: inconclusive: 19.5 µM [inhibitor, partial curve]
Potency [2]: active: 13.3 µM
Potency [3]: inconclusive: 18.4 µM [cytotoxic, single point]
Potency [4]: inconclusive: 18.4 µM [cytotoxic, single point]

Nc1c(CC(=O)O)cccc1C(=O)c1ccc(Br)cc1
Potency [1]: inactive
Potency [2]: inactive
Potency [3]: inconclusive: 29.1 µM [cytotoxic, single point]
Potency [4]: inconclusive: 4.61 µM [cytotoxic, partial curve, poor fit]

C1N2CN3CN1CN(C2)C3
Potency [1]: inactive
Potency [2]: inactive
Potency [3]: inconclusive: 20.6 µM [cytotoxic, single point]
Potency [4]: inconclusive: 29.1 µM [cytotoxic, single point]

O=C(Oc1cccc2cccnc12)c1ccccc1
Potency [1]: inconclusive: 0.617 µM [inhibitor, full curve, poor fit]
Potency [2]: inconclusive: 0.119 µM [rising, full curve, poor fit]
Potency [3]: inconclusive: 29.1 µM [cytotoxic, single point]
Potency [4]: active: 23.1 µM

CC(C(=O)O)c1ccc(C(=O)c2cccs2)cc1 (stereo unspecified)
Potency [1]: inactive
Potency [2]: inconclusive: 0.0053 µM [cytotoxic, full curve, poor fit]
Potency [3]: inconclusive: 18.4 µM [cytotoxic, single point]
Potency [4]: inconclusive: 25.9 µM [cytotoxic, single point]

Nc1ccc(C(=O)Nc2ccccc2N)cc1
Potency [1]: active: 17.4 µM
Potency [2]: inconclusive: 9.44 µM [cytotoxic, partial curve]
Potency [3]: inconclusive: 29.1 µM [cytotoxic, single point]
Potency [4]: inconclusive: 20.6 µM [cytotoxic, single point]

Cc1ccc(NC(=O)c2ccc(CN3CC[C@H](N(C)C)C3)c(C(F)(F)F)c2)cc1Nc1nccc(-c2cncnc2)n1
Potency [1]: inconclusive: 7.56 µM [inhibitor, partial curve]
Potency [2]: active: 6.32 µM
Potency [3]: inconclusive: 10.1 µM [cytotoxic, partial curve]
Potency [4]: inconclusive: 18 µM [cytotoxic, single point]

Cc1coc2c1C(=O)C(=O)c1c-2ccc2c1CCCC2(C)C
Potency [1]: inactive
Potency [2]: active: 1.86 µM
Potency [5]: inactive
Potency [6]: inactive
Potency [7]: inactive
Potency [8]: inactive
Potency [4]: inconclusive: 20 µM [cytotoxic, partial curve, poor fit]

CN(C)C(=O)COC(=O)c1cc(-c2ccc(C3CCNCC3)cc2)c2ccc(-c3ccc(C(F)(F)F)cc3)cc2c1
Potency [1]: inconclusive: 6.74 µM [inhibitor, partial curve]
Potency [9]: active: 5.17 µM

CCOc1ccc(C(Nc2ccccn2)c2ccc3ccc(C)nc3c2O)cc1C (stereo unspecified)
Potency [1]: inconclusive: 37.9 µM [inhibitor, single point]
Potency [9]: inconclusive: 20.6 µM [cytotoxic, single point]

C[N+](C)(CCOc1ccccc1)Cc1cccs1
Potency [1]: inconclusive: 24.5 µM [inhibitor, single point]
Potency [2]: inactive
Potency [3]: inconclusive: 16.4 µM [cytotoxic, partial curve, poor fit]

CN1CC(=O)N/C1=N/C(=O)Nc1cccc(Cl)c1
Potency [1]: inactive
Potency [2]: inactive
Potency [4]: inconclusive: 20.6 µM [cytotoxic, single point]

O=C(NCCN1CCOCC1)c1ccc(Cl)cc1
Potency [1]: inactive
Potency [2]: inactive
Potency [4]: inactive

O=C(Nc1ccc(Cl)cc1)Nc1ccc(Cl)c(C(F)(F)F)c1
Potency [1]: inconclusive: 30.9 µM [inhibitor, single point]
Potency [2]: inconclusive: 4.73 µM [cytotoxic, partial curve, poor fit]
Potency [3]: active: 2.91 µM

CN1CCN(c2ccc(OC(F)(F)F)c(Nc3ncc4c(n3)-c3c(c(C(N)=O)nn3CCO)CC4)c2)CC1
Potency [1]: inactive
Potency [2]: inconclusive: 51.7 nM [cytotoxic, full curve] and inconclusive: 83.3 nM [cytotoxic, full curve]
Potency [4]: inconclusive: 0.0891 µM [cytotoxic, full curve, poor fit]

COCC(=O)Nc1c(I)c(C(=O)NCC(O)CO)c(I)c(C(=O)N(C)CC(O)CO)c1I (stereo unspecified)
Potency [1]: inactive
Potency [9]: inactive

CN1[C@@H]2CC[C@H]1CC(NC(=O)n1c(=O)[nH]c3ccccc31)C2 (stereo partly specified)
Potency [1]: inconclusive: 24.5 µM [inhibitor, single point]
Potency [2]: inactive
activity (max response) [3]: inactive: 2.49%

Cc1cc(N2CCCCC2)nc2ccccc12
Potency [1]: inconclusive: 10 µM [inhibitor, partial curve]
Potency [9]: inactive

O=C(CN1CCNCC1)NC1CCCCC1
Potency [1]: inactive
Potency [2]: inactive
activity (max response) [3]: inactive: -8.69%

COc1cc2nc(N3CCCC3)nc(NCCCCCN3CCCC3)c2cc1OC
Potency [1]: inconclusive: 25.1 µM [inhibitor, single point]
Potency [9]: active: 2.59 µM

Reference: PubChem BioAssay (NCATS)
